Assay results as given in patent US5616684A, “Cyclic peptides and use thereof” (priority 1991, dated 1997).
Part of at least one peptide drawing is inferred or uncertain, most often the ends. Non-standard residues stand in square brackets, D forms with d. Residues, ends and D or L forms follow the SMILES beside them. *: point of attachment. Piperazinyl(4-Ph) = c1ccc(N2CCN(*)CC2)cc1; dGly(2-thienyl) = N[C@@H](C(=O)O)c1cccs1; NH(Tetralin-1-yl) = c1ccc2c(c1)CCCC2N*; Tryptamide = c1ccc2c(CCN*)c[nH]c2c1; X7 = c1ccc(C2CCN(*)CC2)cc1; Orn = NCCC[C@H](N)C(=O)O; Bz = O=C(c1ccccc1)*

Experiments:
[1] = test system: ETB receptor (guinea pig kidney crude receptor membrane fraction); assay: ETB Radio Receptor Assay *2; type: binding; conditions: relative activity (Example 8 given as 100), 125I-endothelin-1, 37° C., 90 minutes
Protocol: ETB Radio Receptor Assay *2
In the endothelin radio receptor assay, guinea pigs' kidneys were used. Guinea pigs (Std Hartrey, male 250 g, Japan SLC Ltd.) were made to have a cerebral concussion and sacrificed by bleeding from carotid arteries to pick up the kidneys and removed fat therefrom to prepare the kidneys. The obtained kidneys were sliced and homogenized by politron homogenizer in 20 ml of 50 mM Tris-HCl buffer [pH 7.4; 20 mM NaHCO3, 0.1 mM PMSF (Phenylmethylsulfonyl Fluoride), 1 mM EDTA (Ethylenediaminetetraacetic acid)] per one kidney. The homogenized kidney was applied to a centrifugation at 1,000×g for 15 minutes and the supernatant was further applied to a centrifugation for 20 minutes at 30,000×g. The resulting precipitate was twice washed with 50 mM Tris-HCl buffer (pH 7.4) containing 0.1 mM PMSF, 1 mM EDTA. The resultant was stored at -80 ° C. as a crude receptor membrane fraction and was used as the suspension in the following buffer when necessary.
740 Bq of ^125 I-endothelin-1 (81.4 TBq/mmol, Du Pont, USA) as a radio ligand, the crude membrane fraction (2.1 μg protein) and samples were added to the following buffer. The reaction was performed at 37° C., for 90 minutes in 0.2 ml of the buffer [50 mM Tris-HCl buffer (pH 7.4) containing 0.1 mM PMSF, 1 mM EDTA, 0.2% bovine serum albumin].
The reaction was stopped by fast filtration on a glass filter (GF/B, Wattman, USA) by Cell Harvestor (290 PHD, Cambridge-Technology, Great Britain), and the filter was three times washed with 50 mM Tris-HCl buffer (pH 7.4). Radio activity remained on the filter was assayed by a gamma counter.

[2] = biological target: T1, endothelin receptor A (ETA) (Sus scrofa, UniProt Q29010); assay: Assay of Affinity for Receptor (1): Binding Activity on ETA Receptor; parameters: key: relative binding activity; reference cyclic pentapeptide = 1.0; conditions: specific activity, binding activity of cyclo[-D-Glu-Ala-D-aIle-Leu-D-Trp-] taken as 1.0; porcine heart membrane fraction, 125I-labeled endothelin-1, 25° C., 1 hour
T1 construct: A membrane fraction prepared from the porcine heart; from tissue; host or cells: porcine heart membrane fraction
T1 sequence (Q29010 21-427): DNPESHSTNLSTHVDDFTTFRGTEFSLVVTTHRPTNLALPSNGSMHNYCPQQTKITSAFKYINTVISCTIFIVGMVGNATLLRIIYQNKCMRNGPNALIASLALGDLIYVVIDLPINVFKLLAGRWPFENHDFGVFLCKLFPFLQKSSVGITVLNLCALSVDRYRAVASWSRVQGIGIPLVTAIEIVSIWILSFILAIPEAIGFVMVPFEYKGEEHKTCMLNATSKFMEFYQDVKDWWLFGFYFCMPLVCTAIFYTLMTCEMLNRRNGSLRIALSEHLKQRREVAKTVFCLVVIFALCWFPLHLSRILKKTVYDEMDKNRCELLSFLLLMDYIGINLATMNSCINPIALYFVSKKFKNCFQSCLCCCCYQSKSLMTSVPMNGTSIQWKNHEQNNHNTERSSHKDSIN
Protocol: Assay of Affinity for Receptor (1) . . . Binding Activity on ETA Receptor
A membrane fraction prepared from the porcine heart was diluted to 0.15 mg/ml by using a buffer solution for assay, and 100 μl of the resulting suspension of the membrane fraction was poured into each assay tube to use for assay. To this suspension of the membrane fraction was added 2 μl of 5 nM ^125 I-labeled endothelin-1 solution. Further, 3 μl of a test peptide solution was added thereto, followed by incubation at a temperature of 25° C. for 1 hour. Then, the resulting suspension was diluted with 900 μl of the buffer solution for assay cooled with ice, and thereafter separated into a supernatant and a precipitate by centrifugation at 12,000×g for 10 minutes. Cell membranes and an endothelin receptor A (ETA) embedded therein were contained in the precipitate, and radioactive iodine-labeled endothelin combined with the receptor was also recovered in the precipitate. Accordingly, the amount of radioactive iodine-labeled endothelin combined with the endothelin receptor A (ETA) was determined by measuring the amount of radioactive iodine contained in the precipitate with a gamma-ray counter. The cyclic pentapeptide described in Japanese Patent Application No. 2-413828/1990, cyclo[-D-Glu-Ala-D-aIle-Leu-D-Trp-], was used as a control compound. The numerical value of ETA shown in Table 1 is the value of specific activity, taking the binding activity of this cyclic pentapeptide on the receptor A as 1.0. The binding activity (IC50) of this cyclic pentapeptide on the ETA receptor is 2×10^-6 M.

[3] = biological target: T2, endothelin receptor B (ETB) (Bos taurus, UniProt P28088); assay: Assay of Affinity for Receptor (2): Binding Activity on ETB Receptor *1; parameters: key: relative specific activity, Example 8 compound = 100; conditions: specific activity, binding activity of the compound of Example 8 taken as 100; bovine brain membrane fraction, 125I labeled endothelin-1, 25° C., 1 hour
T2 construct: A membrane fraction prepared from the bovine brain; from tissue; host or cells: bovine brain membrane fraction
T2 sequence (P28088 27-441): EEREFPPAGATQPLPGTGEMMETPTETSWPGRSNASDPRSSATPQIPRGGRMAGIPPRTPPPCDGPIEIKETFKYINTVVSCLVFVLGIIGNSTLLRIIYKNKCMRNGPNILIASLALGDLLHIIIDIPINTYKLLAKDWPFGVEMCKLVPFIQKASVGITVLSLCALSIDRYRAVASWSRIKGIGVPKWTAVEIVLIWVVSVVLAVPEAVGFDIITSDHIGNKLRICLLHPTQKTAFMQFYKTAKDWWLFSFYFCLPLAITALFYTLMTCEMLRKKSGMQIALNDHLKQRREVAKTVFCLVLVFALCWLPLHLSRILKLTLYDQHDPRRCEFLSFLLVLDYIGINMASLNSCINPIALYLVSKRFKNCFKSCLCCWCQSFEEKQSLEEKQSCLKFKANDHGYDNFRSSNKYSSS
Protocol: Assay of Affinity for Receptor (2) . . . Binding Activity on ETB Receptor *1
A membrane fraction prepared from the bovine brain was diluted to 0.15 mg/ml by using a buffer solution for assay, and 100 μl of the resulting suspension of the membrane fraction was poured into each assay tube to use for assay. To this suspension of the membrane fraction was added 2 μl of 5 nM ^125 I labeled endothelin-1 solution. Further, 3 μl of a test peptide solution was added thereto, followed by incubation at a temperature of 25° C. for 1 hour. Then, the resulting suspension was diluted with 900 μl of the buffer solution for assay cooled with ice, and thereafter separated into a supernatant and a precipitate by centrifugation at 12,000×g for 10 minutes. Cell membranes and an endothelin receptor B (ETB) embedded therein were contained in the precipitate, and radioactive iodine-labeled endothelin bound to the receptor was also recovered in the precipitate. Accordingly, the amount of radioactive iodine-labeled endothelin bound to the endothelin receptor B (ETB) was determined by measuring the amount of radioactive iodine contained in the precipitate with a gamma-ray counter. The numerical value of ETB shown in Table 1 is the value of specific activity, taking the binding activity of the compound of Example 8 on the receptor B as 100.

CC(C)C[C@@H]1NC(=O)[C@@H](CC(C)C)NC(=O)[C@H](CC(=O)O)NC(=O)[C@H](CC(=O)NCCc2c[nH]c3ccccc23)NC(=O)[C@@H](CC(=O)O)NC(=O)[C@@H](Cc2c[nH]c3ccccc23)NC1=O [Example 12, cyclo[-D-Asp-Asn(CH2 CH2 -Ind)-Asp-D-Leu-Leu-D-Trp- ]] (cyclo(D(Tryptamide)D[dL]L[dW][dD]))
Binding Activity on ET Receptor (R. act.) ET8 *2 [1]: 150
Binding Activity on ET Receptor (R. act.) ETA [2]: 220
Binding Activity on ET Receptor (R. act.) ET8 *1 [3]: 230

CC(C)C[C@@H]1NC(=O)[C@@H](CC(C)C)NC(=O)[C@H](CC(=O)O)NC(=O)[C@H](CCC(=O)NCCc2c[nH]c3ccccc23)NC(=O)[C@@H](CC(=O)O)NC(=O)[C@@H](Cc2c[nH]c3ccccc23)NC1=O [Example 64, Cyclo[--D--Asp--Gln(CH2 CH2 --Ind)--Asp--D--Leu--Leu--D--Trp--]] (cyclo(D[dL]L[dW][dD]E(Tryptamide)))
Binding Activity on ET Receptor (R. act.) ET8 *2 [1]: 270
Binding Activity on ET Receptor (R. act.) ETA [2]: 120

CC(C)C[C@@H]1NC(=O)[C@@H](CC(C)C)NC(=O)[C@H](CC(=O)O)NC(=O)[C@H](CC(=O)N2CCN(c3ccccc3)CC2)NC(=O)[C@@H](CC(=O)O)NC(=O)[C@@H](Cc2c[nH]c3ccccc23)NC1=O [Example 70, Cyclo[--D--Asp--Asp(R1)--Asp--D--Leu--Leu--D--Trp--]] (cyclo(D(Piperazinyl(4-Ph))D[dL]L[dW][dD]))
Binding Activity on ET Receptor (R. act.) ET8 *2 [1]: 2600
Binding Activity on ET Receptor (R. act.) ETA [2]: 360
Binding Activity on ET Receptor (R. act.) ET8 *1 [3]: 1500

CC(C)C[C@@H]1NC(=O)[C@@H](CC(C)C)NC(=O)[C@H](CC(=O)O)NC(=O)[C@H](CC(=O)N2CCC(c3ccccc3)CC2)NC(=O)[C@@H](CC(=O)O)NC(=O)[C@@H](Cc2c[nH]c3ccccc23)NC1=O [Example 71, Cyclo[--D--Asp--Asp(R2)--Asp--D--Leu--Leu--D--Trp--]] (cyclo(D(X7)D[dL]L[dW][dD]))
Binding Activity on ET Receptor (R. act.) ET8 *2 [1]: 1000
Binding Activity on ET Receptor (R. act.) ETA [2]: 160

CC(C)C[C@@H]1NC(=O)[C@@H](CC(C)C)NC(=O)[C@H](CC(=O)O)NC(=O)[C@H](CCC(=O)NC2CCCc3ccccc32)NC(=O)[C@@H](CC(=O)O)NC(=O)[C@@H](Cc2c[nH]c3ccccc23)NC1=O (stereo partly drawn) [Example 78, Cyclo[--D--Asp--Glu(R5)--Asp--D--Leu--Leu--D--Trp--]] (cyclo(D[dL]L[dW][dD]E(NH(Tetralin-1-yl))))
Binding Activity on ET Receptor (R. act.) ET8 *2 [1]: 130
Binding Activity on ET Receptor (R. act.) ETA [2]: 120

CC(C)C[C@@H]1NC(=O)[C@@H](CC(C)C)NC(=O)[C@H](CC(=O)O)NC(=O)[C@H](CCCNC(=O)c2ccccc2)NC(=O)[C@@H](CC(=O)O)NC(=O)[C@@H](Cc2c[nH]c3ccccc23)NC1=O [Example 79, cyclo[-D-Asp-Orn(COPh)-Asp-D-Leu-Leu-D-Trp-]] (cyclo(D[dL]L[dW][dD][Orn](Bz)))
Binding Activity on ET Receptor (R. act.) ET8 *2 [1]: 71
Binding Activity on ET Receptor (R. act.) ETA [2]: 26

CC(C)C[C@@H]1NC(=O)[C@@H](c2cccs2)NC(=O)[C@H](CC(=O)O)NC(=O)[C@H](CC(=O)NCCc2c[nH]c3ccccc23)NC(=O)[C@@H](CC(=O)O)NC(=O)[C@@H](Cc2c[nH]c3ccccc23)NC1=O [Example 90, cyclo[-D-Asp-Asn(CH2 CH2 -Ind)-Asp-DThg-(2)-Leu-D-Trp-]] (cyclo(D(Tryptamide)D[dGly(2-thienyl)]L[dW][dD]))
Binding Activity on ET Receptor (R. act.) ET8 *2 [1]: 280
Binding Activity on ET Receptor (R. act.) ETA [2]: 810
Binding Activity on ET Receptor (R. act.) ET8 *1 [3]: 590

CC(C)C[C@@H]1NC(=O)[C@@H](c2cccs2)NC(=O)[C@H](CC(=O)O)NC(=O)[C@H](CC(=O)N2CCN(c3ccccc3)CC2)NC(=O)[C@@H](CC(=O)O)NC(=O)[C@@H](Cc2c[nH]c3ccccc23)NC1=O [Example 96, Cyclo[--D--Asp--Asp(R1)--Asp--D--Thg(2)--Leu--D--Trp--]] (cyclo(D(Piperazinyl(4-Ph))D[dGly(2-thienyl)]L[dW][dD]))
Binding Activity on ET Receptor (R. act.) ETA [2]: 980
Binding Activity on ET Receptor (R. act.) ET8 *1 [3]: 1800
